Assay results taken from the supplement of paper PMC7826260.
The list shows a part of the results. The data describe in vitro nicking of single-stranded DNA by Rep domains for 1 h at 37 °C with 3 µM enzyme; only the middle of the 90-letter strands is printed. A value is the log2 ratio of uncut reads to the pool without enzyme; more negative means more cut, near 0 not cut, and no call is made. Because reads are shares of a total, they shift together; values above 0 arise when much of the pool is cut.

Experiments:
Assay in all cases: uncleaved DNA left, log2 of reads against the no-enzyme library (log2 ratio); higher = less cleavage (more negative = more Rep cleavage of the k-mer); sequences stand for … in CTCGTCCG…ACCGGAGA
[1] = tested on: T1, Rep nickase domain of Muscovy duck circovirus
T1 sequence (residues 1-111 of Rep, tag left off): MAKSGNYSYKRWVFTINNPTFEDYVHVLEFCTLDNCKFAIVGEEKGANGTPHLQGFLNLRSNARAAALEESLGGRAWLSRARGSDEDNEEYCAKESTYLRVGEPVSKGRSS
Method: (§1)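 A pool of 90-nt single-stranded DNAs with seven random bases just before the constant AC of the nick site (name = the seven bases) was cut by 3 µM recombinant His6-SUMO-tagged Rep nickase domain (300 nM DNA, 50 mM HEPES pH 8.0, 50 mM NaCl, 1 mM MnCl2, 1 h, 37 °C, three replicates). Uncut DNA was amplified and sequenced.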

[2] = tested on: T2, Rep nickase domain of banana bunchy top virus
T2 sequence (residues 1-94 of Rep, tag left off): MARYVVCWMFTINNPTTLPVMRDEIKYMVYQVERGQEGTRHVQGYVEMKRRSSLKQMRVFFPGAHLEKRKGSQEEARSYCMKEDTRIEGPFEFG
Method: as §1

[3] = tested on: T3, Rep nickase domain of cabbage leaf curl virus
T3 sequence (residues 1-116 of Rep, tag left off): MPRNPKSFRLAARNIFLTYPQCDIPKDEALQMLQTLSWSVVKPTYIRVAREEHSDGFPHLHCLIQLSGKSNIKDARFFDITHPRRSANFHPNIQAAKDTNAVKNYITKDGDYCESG
Method: as §1

[4] = tested on: T4, Rep nickase domain of chickpea chlorotic dwarf virus
T4 sequence (residues 1-124 of Rep, tag left off): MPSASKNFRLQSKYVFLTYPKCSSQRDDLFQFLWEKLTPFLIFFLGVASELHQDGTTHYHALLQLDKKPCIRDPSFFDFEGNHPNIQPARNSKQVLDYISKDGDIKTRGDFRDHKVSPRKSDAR
Method: as §1

[5] = tested on: T5, Rep nickase domain of faba bean necrotic yellows virus
T5 sequence (residues 1-98 of Rep, tag left off): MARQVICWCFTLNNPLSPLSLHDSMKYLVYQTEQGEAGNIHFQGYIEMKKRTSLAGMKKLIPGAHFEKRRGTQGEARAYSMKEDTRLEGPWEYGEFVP
Method: as §1

[6] = tested on: T6, Rep nickase domain of maize striate mosaic virus
T6 sequence (residues 1-117 of Rep, tag left off): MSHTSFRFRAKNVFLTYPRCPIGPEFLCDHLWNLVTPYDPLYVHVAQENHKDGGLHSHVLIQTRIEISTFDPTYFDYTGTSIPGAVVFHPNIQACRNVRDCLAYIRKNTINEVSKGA
Method: as §1

[7] = tested on: T7, Rep nickase domain of porcine circovirus 2
T7 sequence (residues 2-116 of Rep, tag left off): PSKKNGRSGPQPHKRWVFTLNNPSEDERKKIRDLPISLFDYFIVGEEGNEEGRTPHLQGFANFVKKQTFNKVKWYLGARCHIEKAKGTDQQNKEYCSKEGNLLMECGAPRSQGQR
Method: as §1

[8] = tested on: T8, Rep nickase domain of tomato yellow leaf curl virus
T8 sequence (residues 1-136 of Rep, tag left off): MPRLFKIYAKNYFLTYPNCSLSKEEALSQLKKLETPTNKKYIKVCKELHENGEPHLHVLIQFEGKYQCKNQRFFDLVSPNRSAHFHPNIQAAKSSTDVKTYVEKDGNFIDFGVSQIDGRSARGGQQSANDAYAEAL
Method: as §1

[9] = tested on: T9, Rep nickase domain of wheat dwarf virus
T9 sequence (residues 1-137 of Rep, tag left off): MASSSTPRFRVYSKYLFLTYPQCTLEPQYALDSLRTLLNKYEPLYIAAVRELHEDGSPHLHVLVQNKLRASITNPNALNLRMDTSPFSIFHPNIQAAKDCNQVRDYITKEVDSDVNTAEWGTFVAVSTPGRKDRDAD
Method: as §1

| Sequence | uncleaved DNA left (log2) [1] | uncleaved DNA left (log2) [2] | uncleaved DNA left (log2) [3] | uncleaved DNA left (log2) [4] | uncleaved DNA left (log2) [5] | uncleaved DNA left (log2) [6] | uncleaved DNA left (log2) [7] | uncleaved DNA left (log2) [8] | uncleaved DNA left (log2) [9] |
| --- | --- | --- | --- | --- | --- | --- | --- | --- | --- |
| CTTCACG | -0.0534 | 0.13 | -0.975 | -0.326 | 0.0718 | -1.04 | 0.155 | 0.00444 | -0.0377 |
| CCTTTGA | -0.03 | -0.123 | -0.433 | -0.613 | -0.0693 | -1.22 | 0.0128 | -0.175 | -0.107 |
| AAATGAT | -0.278 | 0.0285 | -3.43 | -2.57 | 0.0537 | -0.941 | -3.65 | -0.226 | -1.66 |
| CCGCGCT | 0.113 | -0.0469 | -0.575 | -1.12 | 0.0205 | -0.851 | 0.00531 | -0.209 | -0.151 |
| GCTGGTA | -0.0531 | 0.0834 | 0.116 | 0.501 | -0.0293 | 1.08 | 0.0549 | 0.0574 | -0.0323 |
| GGGTTAC | -0.0764 | -0.00192 | 0.667 | 1.56 | -0.0556 | 2.06 | 0.151 | 0.00248 | 0.0687 |
| CAACTGC | 0.0077 | 0.0526 | -0.29 | -0.343 | -0.0372 | -0.744 | 0.0812 | -0.0152 | 0.00659 |
| CTTGTAG | 0.119 | 0.018 | -0.727 | -0.286 | -0.00487 | -1.01 | 0.241 | 0.13 | -0.0299 |
| GTCGGAC | 0.0812 | 0.222 | 0.913 | 2 | 0.0288 | 2.29 | 0.339 | 0.18 | 0.311 |
| GGCAGAC | 0.0177 | 0.171 | 0.834 | 1.93 | 0.0178 | 2.21 | 0.332 | 0.107 | 0.132 |
| TGACTGG | 0.0588 | -0.00702 | 0.0403 | 0.572 | 0.00843 | 1.14 | 0.0455 | -0.141 | 0.0431 |
| AATCATG | -0.00717 | -0.0117 | -0.527 | -0.455 | -0.103 | -0.958 | 0.0821 | -0.152 | -0.115 |
| CGTCCAG | -0.0534 | -0.0296 | -0.612 | -0.401 | -0.203 | -0.853 | 0.0627 | 0.0535 | -0.0566 |
| AGGTAGG | 0.0819 | -0.0293 | 0.0337 | 0.298 | 0.0844 | -0.0817 | 0.124 | -0.066 | -0.112 |
| TACTTAC | 0.0782 | -0.00622 | -0.109 | -2.05 | 0.0186 | -0.566 | -0.487 | -0.0342 | 0.0419 |
